From publication PMC4336329 (PLoS ONE, 2015)
The campaign covered roughly 310,000 compounds. About 14,000 (4.5%) showed an effect of 50% or more. The effect is printed as a negative number. The list shows a part of the results.

The compounds below were run against human ether-à-go-go-related gene (hERG) potassium channel (human, UniProt Q12809) (assay: primary screen, population patch clamp on CHO cells stably expressing hERG).
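Also: peak tail current of the secondary pulse compared with the same well before compound.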

human ether-à-go-go-related gene (hERG) potassium channel, sequence (Q12809 whole entry, looked up): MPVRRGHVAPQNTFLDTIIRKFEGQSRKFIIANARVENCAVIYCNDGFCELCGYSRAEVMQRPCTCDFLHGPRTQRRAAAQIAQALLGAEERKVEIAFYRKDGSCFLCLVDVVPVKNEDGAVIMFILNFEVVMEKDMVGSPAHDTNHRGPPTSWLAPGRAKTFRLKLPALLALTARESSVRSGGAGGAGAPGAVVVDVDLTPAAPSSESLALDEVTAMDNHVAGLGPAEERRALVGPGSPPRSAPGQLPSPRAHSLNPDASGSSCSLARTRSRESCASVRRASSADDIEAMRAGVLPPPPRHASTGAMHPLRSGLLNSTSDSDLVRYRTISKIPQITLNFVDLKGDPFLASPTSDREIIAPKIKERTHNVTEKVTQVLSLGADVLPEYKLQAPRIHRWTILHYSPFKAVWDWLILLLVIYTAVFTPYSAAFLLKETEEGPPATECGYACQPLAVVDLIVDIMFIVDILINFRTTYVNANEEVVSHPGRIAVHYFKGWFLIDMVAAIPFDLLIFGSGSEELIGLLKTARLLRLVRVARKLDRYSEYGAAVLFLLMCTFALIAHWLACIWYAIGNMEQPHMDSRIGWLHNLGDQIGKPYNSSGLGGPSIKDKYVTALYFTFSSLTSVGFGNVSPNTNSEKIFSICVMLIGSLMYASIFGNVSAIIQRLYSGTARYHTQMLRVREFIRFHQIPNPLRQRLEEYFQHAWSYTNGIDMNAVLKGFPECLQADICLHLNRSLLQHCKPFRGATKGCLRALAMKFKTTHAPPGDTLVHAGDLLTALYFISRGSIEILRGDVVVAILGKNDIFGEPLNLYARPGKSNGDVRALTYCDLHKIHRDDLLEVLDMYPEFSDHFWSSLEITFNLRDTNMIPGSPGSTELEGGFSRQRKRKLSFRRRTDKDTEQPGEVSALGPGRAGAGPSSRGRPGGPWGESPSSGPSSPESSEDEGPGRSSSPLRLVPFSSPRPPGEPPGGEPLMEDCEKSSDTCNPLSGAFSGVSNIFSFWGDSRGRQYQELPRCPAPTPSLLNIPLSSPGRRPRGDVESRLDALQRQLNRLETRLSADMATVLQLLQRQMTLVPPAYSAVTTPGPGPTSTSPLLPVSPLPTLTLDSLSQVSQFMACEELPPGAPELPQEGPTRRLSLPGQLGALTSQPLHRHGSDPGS

SMILES | hERG current change (%, negative = inhibition) at 10uM
COCCN(CC(=O)Oc1ccccc1P(=O)(OC)OC)Cc1ccccc1 | 7.73%
COc1ccccc1CNC(=O)C1=C(C)C(=O)OC12CCC(C)CC2 (stereo not shown) | -2.21%
CSc1ccc(/C=N/n2c(COc3ccccc3)n[nH]c2=S)cc1 | 21.6%
CC(C)(CNC(=O)CC1C(=O)NCCN1Cc1cccc(F)c1F)N1CCOCC1 (stereo not shown) | 29%
O=C(O)c1cn(Cc2ccccc2Cl)c2ccc(S(=O)(=O)N3CCOCC3)cc2c1=O | -12.1%
COc1ccc(C2NC(=O)CCC2[N+](=O)[O-])c(OC)c1 (stereo not shown) | 1.25%
C#Cc1ccc([C@H]2C=C(C(=O)NCc3nc4ccccc4[nH]3)O[C@@H](OCC)[C@@H]2CCCO)cc1 | -21.9%
Cc1cs/c(=N\N=C\c2ccccc2)n1Cc1ccco1 | 4.35%
COCCNC(=O)CC(=O)N/N=C/c1cccc(C(=O)OC)c1 | 7.31%
CCOc1ccc(NC(=O)CN(C)C(=O)c2cccnc2Sc2ccccc2Cl)cc1OCC | -8.63%
CN(C)CCN(C(=O)C1CCCCC1)c1nc2cc3c(cc2s1)OCO3.Cl | -9.7%
COc1ccc(C)cc1S(=O)(=O)N1CCC2(CC1)OCCN2S(=O)(=O)c1ccccc1 | 15.3%
Cc1ccccc1-c1nc(CS(=O)(=O)CC(=O)NCCCN2CCN(C)CC2)c(C)o1 | -0.595%
O=C(COC(=O)c1cc([N+](=O)[O-])ccc1N1CCOCC1)NC1CCS(=O)(=O)C1 (stereo not shown) | 11.9%
COc1ccccc1NC(=O)c1ccc(COc2ccccc2OC)cc1 | 10%
Cc1ccnc2c1NC(=O)c1cccnc1N2C1CC1 | -2.19%
CCC(=O)c1ccc(OCC(O)CN2CCN(c3ccccn3)CC2)cc1 (stereo not shown) | -34%
O=C(NC1CC2CCC(C1)N2Cc1ccccc1)c1ccccc1Br (stereo not shown) | -20.1%
O=C(c1ccccc1NS(=O)(=O)c1cccc([N+](=O)[O-])c1)N1CCOCC1 | -9.85%
Cc1ccc(C(=O)COC(=O)C(C)N2C(=O)C3C4C=CC(C4)C3C2=O)cc1 (stereo not shown) | -1.78%
CCCN(CCC)CCCNS(=O)(=O)c1ccc2c(c1)oc(=O)n2C | 3.44%
O=C(COc1ccccc1F)NNC(=O)c1cccc(-n2cccc2)c1 | 5.68%

SMILES | hERG current change (%, negative = inhibition) at 10uM
O=C(c1ccco1)N1CCN(C(=O)C2CCN(S(=O)(=O)c3cnc[nH]3)CC2)CC1 | 13.6%
COc1cc(/C=C/c2ccc3cccc(OC)c3n2)c(OC(C)=O)c([N+](=O)[O-])c1 | 2.34%
Cc1nn(-c2ccccc2)c(Cl)c1C1C(C#N)=C(N)Oc2c1c(=O)oc1ccccc21 (stereo not shown) | 6.87%
O=C(CSc1ncccn1)NCCC1=CCCCC1 | -11.3%
CCOC(=O)c1cc(=O)cc(C(=O)OCC)o1 | 6.87%
CC1CN(S(=O)(=O)c2cccc(C(=O)Nc3ccccc3N3CCCC3)c2)CC(C)O1 (stereo not shown) | -45.3%
COc1ccc(S(=O)(=O)Nc2cccc(-c3ccc(N4CCCCCC4)nn3)c2)cc1OC | 7.72%
CC(NC(=O)CCNC(=O)c1ccc(Br)cc1)c1ccc(S(N)(=O)=O)cc1 (stereo not shown) | 15.3%
COc1cccc(C2Nc3c(F)cc(Br)cc3C3C=CCC32)c1OC (stereo not shown) | 9.51%
CCOC(=O)N=Nc1c(O)n(C)c2ccccc12 | -7.81%
COc1ccccc1CN1C[C@@H]2C[C@@H](c3ccc4nsnc4c3)N3CCC[C@@]23C1=O | -22.6%
O=C(/C=C/c1ccc(Br)cc1)NC(=S)N1C[C@H]2C[C@H](C1)c1cccc(=O)n1C2 | -57.9%
CN(C)c1ccc(NC(=O)c2ccc(N3CCOCC3)nc2)cc1 | 3.42%
COc1cccc(C(C(=O)NC2CCCC2)N(Cc2ccccc2OC)C(=O)c2ccco2)c1 (stereo not shown) | -0.597%
CCOC(=O)CC(=O)c1sc2c(c1N)c(=O)[nH]c(=O)n2-c1ccc(OC)cc1 | 15.2%
O=S1(=O)NC(=NC2CCCCCC2)c2ccccc21 | -3.31%
CCOC(=O)[C@@H]1[C@H]2COc3ccccc3[C@@H]2N2C(=O)N(c3cccc(Cl)c3)C(=O)[C@]12C | -14.2%
CC1=CC(C)(C)[N+](C)(C)c2ccccc21.[I-] | 55.3%
COC(=O)C1CCN(C(=O)c2cc(S(=O)(=O)N3CCCCC3)ccc2Cl)CC1 | -7.02%
Cc1c(Cl)cccc1NC(=O)CSc1sc2c(O)cc(=O)[nH]c2c1C#N | -2.45%
CCOC(=O)c1sc(NC(=S)NC(=O)c2ccccc2)nc1C | 7.84%
Cc1cc(C(=O)CSc2nnc(C3CC3)n2C2CC2)c(C)n1C(C)C | -0.454%

SMILES | hERG current change (%, negative = inhibition) at 10uM
Cn1c(/C=C/c2ccccc2[N+](=O)[O-])nc2ccccc2c1=O | 5%
Cc1ccc(S(=O)(=O)N2CCOCC2)cc1-c1n[nH]c(=S)n1-c1ccccc1 | 23.2%
CC(=O)Oc1ccc2c(c1)cc(C)n2C | -5.62%
Cc1ccc(C)c(NC(=O)COC(=O)CNC(=O)C2CCCCC2)c1 | -12.9%
COC(=O)C1=C(C)Nc2ccc(C)cc2S1 | -4.56%
Cc1occc1C(=O)N/N=C/C(Br)=C\c1ccccc1 | 7.98%
CCN(CCCNS(=O)(=O)c1ccc2c(c1)oc(=O)n2C)c1cccc(C)c1 | -4.37%
COc1ccc(S(=O)(=O)N2CCC(NC(=O)Nc3ccc(C)cc3)CC2)cc1 | -0.961%
CC(c1nccs1)N(C)c1nc2nonc2nc1NC1CC1 (stereo not shown) | 1.23%
COc1ccc(N2CC(NC(=O)N3CCc4ccccc43)CC2=O)cc1OC (stereo not shown) | -12.8%
Cc1cc(C)c2nc(SCC(=O)NNC(=O)c3ccco3)c(C)cc2c1 | 27.2%
CC(=O)Nc1ccc(S(=O)(=O)N(C2=NCC(C)S2)c2ccccc2)cc1 (stereo not shown) | -13.4%
CN(c1ccc(OCC(=O)N2CCC(C(N)=O)CC2)cc1)S(=O)(=O)c1cccs1 | 5.46%
Nc1ccccc1Nc1cc(-c2ccccc2)nn1-c1cccc(Cl)c1 | 20.3%
COc1ccc(/C=C2/SC(=S)N(n3c(C)ccc3C)C2=O)cc1 | 5.23%
CC1(C)Cc2nc3scc(NC(=O)c4ccccc4)c3cc2CO1 | -0.679%
C=CCOCC(O)CS(=O)(=O)Cc1ccc(Cl)cc1 (stereo not shown) | 4.57%
CC1Cc2ccccc2N1C(=O)CSC1=NCCS1 (stereo not shown) | 4%
Cc1c(NC(=O)c2ccco2)cccc1C(=O)NN1C(=O)c2ccccc2C1=O | 16.4%
Cc1cccc(-c2oc3ccccc3c2-c2ccc3c(c2)OCO3)c1 | 31.3%
CC(C)(C)OC(=O)NCCCCC1=CC2=CC(=O)C(C)(OC(=O)c3ccco3)C(=O)C2=CO1 (stereo not shown) | 2.05%
Cc1ccc(C(=O)COC(=O)CCN2C(=O)C3C4C=CC(C5CC45)C3C2=O)cc1 (stereo not shown) | -39.9%

SMILES | hERG current change (%, negative = inhibition) at 10uM
Cc1onc(-c2ccccc2)c1C(=O)N=C(N)c1ccc(Cl)cc1 | 15.6%
CCCc1cnc(N2CCN(C(=O)c3ccc(F)cc3)CC2)nc1 | -43.1%
CCC(c1nnnn1Cc1ccc2c(c1)OCO2)N1CCN(c2ccc(F)cc2)CC1 (stereo not shown) | -9.29%
CCN(C(=O)CSc1nnc(-c2ccccc2Cl)n1C1CCCC1)C1CCS(=O)(=O)C1 (stereo not shown) | 6.77%
O=C1C2C3C=CC(C4CC34)C2C(=O)N1/N=C/c1ccc(-c2cccc([N+](=O)[O-])c2)o1 (stereo not shown) | -14.1%
CCC(=O)c1ccc(OCC(=O)N(CC)CC(=O)Nc2ccccc2OC)cc1 | -30.1%
Cc1cccc(NC(=O)CCCN2C(=O)c3ccccc3C2=O)n1 | 2.84%
CN1CCN(Cc2nc3ccccc3c(=O)n2Cc2nc(-c3ccccc3F)cs2)CC1 | -71%
CC(=O)Nc1ccc(NC(=O)Cc2ccc(F)cc2)cc1 | 15.2%
C=CCNC(=O)CC(=O)N/N=C/c1cccs1 | -8.58%
CCn1ccnc1CN(C)C(=O)C1CCC(=O)N(Cc2cccc(F)c2)C1 (stereo not shown) | -11.9%
COc1ccc(-c2csc3nc(C)n(-n4cccc4)c(=O)c23)cc1OC | 2.78%
COc1ccccc1N1CCN(C(=O)CSc2nnc(-c3ccoc3C)o2)CC1 | -30.5%
CC(=O)N1CCCc2cc(S(=O)(=O)NC(C(=O)NCc3ccc(C)cc3)C(C)C)ccc21 (stereo not shown) | -15.3%
Cn1nnnc1SCC(=O)Nc1cc(C(F)(F)F)ccc1N1CCOCC1 | -22.7%
COc1ccc(CN2C(=O)CC(C(=O)NCCc3ccc(S(N)(=O)=O)cc3)SC2=Nc2ccccc2)cc1 (stereo not shown) | 28.7%
COC(=O)c1c(NC(=O)COC(=O)c2ccccc2O)sc2c1CCCCC2 | 15.4%
O=S(CCc1ccncc1)Cc1ccccc1 (stereo not shown) | 5.18%
CCOC(=O)Cn1cnc2scc(-c3ccc(C)c(C)c3)c2c1=O | 8.77%
